Read-outs that look alike come from different tables or passages of the source.
Tests used:
[1] = system: A/California/07/2009 strain; test: Transnasal administration to mice, serum IgG titer specific to A/California/07/2009 strain; assay type: in vivo, BALB/c mice
B/Texas/2/2013 strain [2] = test: Transnasal administration to mice, serum IgG titer specific to B/Texas/2/2013 strain; assay type: in vivo, BALB/c mice
[3] = system: A/California/07/2009 strain; details: in vivo, sc
B/Texas/2/2013 strain [4] = details: in vivo, sc
B/Texas/2/2013 strain [5] = test: Transnasal administration to mice, B/Texas/2/2013 strain-specific IgG1 and IgG2a titers (GMT); assay type: in vivo, BALB/c mice; details: vs adjuvant non-addition
[6] = inactivated whole-virus antigens + 30 μg, vs adjuvant non-addition group
[7] = split antigens + 30 μg, vs adjuvant non-addition
[8] = inactivated whole-virus antigens + 0.03 or 0.3 μg per dose, vs adjuvant non-addition
[9] = split antigens + 0.03 to 30 μg per dose, compared with adjuvant non-addition
[10] = split antigens + 0.03 to 30 μg per dose, compared with inactivated whole-virus antigens without adjuvant

| SMILES | IgG titer for the A/California/07/2009 strain [1, 6] | IgG titer for the A/California/07/2009 strain [1, 7] | IgG titer for the B/Texas/2/2013 strain (B/Texas/2/2013 strain [2]; [6]) | IgG titer for the B/Texas/2/2013 strain (B/Texas/2/2013 strain [2]; [7]) | IgG titer for the A/California/07/2009 strain [3] | IgG titer for the B/Texas/2/2013 strain (B/Texas/2/2013 strain [4]) | IgG titer, A/California/07/2009 strain [1, 8] | IgG titer for the A/California/07/2009 strain ([1]; split antigens + 0.03 to 0.3 μg, vs adjuvant non-addition, Mann-Whitney U test p<0.05) | antigen-specific IgG titer in blood, A/California/07/2009 strain [1, 9] | IgG titer, A/California/07/2009 strain [1, 10] | IgG titer, B/Texas/2/2013 strain (B/Texas/2/2013 strain [2]; [8]) | IgG titer for the B/Texas/2/2013 strain (B/Texas/2/2013 strain [2]; split antigens + 0.03 to 3 μg, vs adjuvant non-addition, Mann-Whitney U test p<0.05) | antigen-specific IgG titer in blood, B/Texas/2/2013 strain (B/Texas/2/2013 strain [2]; [9]) | IgG titer, B/Texas/2/2013 strain (B/Texas/2/2013 strain [2]; [10]) | IgG2a titer (GMT), B/Texas/2/2013 strain-specific (B/Texas/2/2013 strain [5]; inactivated whole-virus antigens + 0.3 μg) | IgG2a titer (GMT), B/Texas/2/2013 strain-specific (B/Texas/2/2013 strain [5]; split antigens + 0.3 μg) |
| --- | --- | --- | --- | --- | --- | --- | --- | --- | --- | --- | --- | --- | --- | --- | --- | --- |
| O=C(O)c1cc(O)c(O)c(O)c1 [gallic acid, reference compound] | substantially the same level as in the adjuvant non-addition group | substantially the same level as in adjuvant non-addition | decreased | significantly decreased | substantially the same level as in the split antigen single administration group | substantially the same level as in the split antigen single administration group | – | – | – | – | – | – | – | – | – | – |
| NCCNC(=O)[C@H](CCCCNC(=O)[C@H](CCCCNC(=O)c1cc(O)c(O)c(O)c1)NC(=O)c1cc(O)c(O)c(O)c1)NC(=O)[C@H](CCCCNC(=O)c1cc(O)c(O)c(O)c1)NC(=O)c1cc(O)c(O)c(O)c1 [TGDK, N2,N6-bis[N2,N6-bis(3,4,5-trihydroxybenzoyl)-lysyl]-N-(2-aminoethyl)-lysinamide] | – | – | – | – | substantially the same level as in the single administration of the split antigens | substantially the same level as in the single administration of the split antigens | increased | significantly higher | elevated | substantially the same level as in the inactivated whole-virus antigens | increased | significantly higher | elevated | substantially the same level as in the inactivated whole-virus antigens | markedly elevated | markedly elevated |
